# Laboratory results as given in PubChem BioAssay (Tox21).
# The inconclusive results got no clear call from the source; some entries with a clear call stand among them for comparison. Entries that show only a call come without a potency. For part of these data: Potencies of inconclusive entries are doubtful fits and often do not repeat. The source made the active and inactive calls. Unless noted, calls follow the shape of the full dose curve.
# How the values were obtained:
# [1] = qHTS assay for small molecule activators of the heat shock response signaling pathway (AID 743210; active = well fitted activation curve with a large enough effect in the signal ratio in the repeat runs, with a control signal flat, not every such curve was filed as active; inconclusive = weak or mixed curves; the % refers to the signal ratio;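 also: HeLa cells with beta-lactamase reporter driven by heat shock elements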); conditions: HeLa HSE-bla reporter, beta-lactamase ratio, 5 h; activation: at 62.6 µM (top of the series) unless noted
# Method in brief: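 Fluorescence from a cleaved B/G FRET substrate (2.5 h, room temp) reports HSE-driven beta-lactamase in HeLa cells treated 5 h at 37 C with DMSO-dissolved compounds.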
# [2] = qHTS assay to identify small molecule agonists of the peroxisome proliferator-activated receptor delta (PPARd) signaling pathway - cell viability counter screen (AID 743211; active = well fitted curve in the direction sought with a large enough effect in the repeat runs; inconclusive = weak or mixed curves; inactive = no such curve, though single readings can be large; an effect the other way counts as inactive or inconclusive; also: nearly all actives have a fitted effect of over 55% in size); conditions: PPARd-bla HEK293H viability, CellTiter-Glo luminescence, 17 h; activity change, negative = cytotoxicity: at 62.6 µM (top of the series)
# Method in brief: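 Viability was measured as CellTiter-Glo luminescence (30 min, room temperature) in the same wells as the beta-lactamase readout. GeneBLAzer PPARd UAS-bla HEK293H cells received compound after 5 h plating and were incubated 17 h at 37 C.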
# [3] = qHTS assay to identify small molecule antagonists of the vitamin D receptor (VDR) signaling pathway - cell viability counter screen (AID 743225; active = well fitted curve in the direction sought with a large enough effect in the repeat runs; inconclusive = weak or mixed curves; inactive = no such curve, though single readings can be large; an effect the other way counts as inactive or inconclusive; also: nearly all actives have a fitted effect of over 50% in size; also: potency is read from the fitted curve at half-maximal effect); conditions: VDR-bla HEK293T viability, CellTiter-Glo luminescence, 16 h; viability change, negative = cytotoxic: at 61 µM (top of the series) unless noted
# Method in brief: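 Cytotoxicity counter screen read by CellTiter-Glo luminescence (30 min, room temperature) in the same wells as the VDR-bla antagonist readout. HEK 293T VDR-UAS-bla cells had 16 h at 37C with compound and 3 nM (final) 1-alpha,25-dihydroxyvitamin D3, then 2 h with FRET substrate.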
# [4] = qHTS assay to identify small molecule agonists of the AP-1 signaling pathway - cell viability counter screen (AID 1159525); conditions: ME-180 (cervical carcinoma) AP-1-bla cells viability, ATP luminescence, 5 h; series mostly up to 76.8 µM; also: nearly all actives have a fitted effect of over 55% in size; also: potency is read from the fitted curve at half-maximal effect
# Method in brief: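 Intracellular ATP by Cell Titer Glo luminescence (30 min, RT) in the same ME-180 AP-1-bla wells after the 5 h compound exposure at 37 °C. Normalised to tetra n-octyl ammonium bromide and DMSO controls.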
# [5] = qHTS assay for small molecule agonists of the antioxidant response element (ARE) signaling pathway (AID 743202; active = well fitted activation curve with a large enough effect in the signal ratio in the repeat runs, not every such curve was filed as active; inconclusive = weak or mixed curves, or effect the other way; inactive = no such curve, though single readings can be large or run the other way; the % refers to the signal ratio); conditions: HepG2 ARE-bla reporter, beta-lactamase FRET, 16 h; activation: at 73.3 µM (top of the series) unless noted
# Method in brief: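 Beta-lactamase reporter activity, read as fluorescence intensity, reflects ARE/Nrf2 pathway induction in HepG2 cells after 16 h compound exposure at 37 C; substrate loading was 2 h at room temperature.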
# [6] = qHTS assay for small molecule activators of the heat shock response signaling pathway - cell viability counter screen (AID 743209; active = well fitted curve in the direction sought with a large enough effect in the repeat runs; inconclusive = weak or mixed curves; inactive = no such curve, though single readings can be large; an effect the other way counts as inactive or inconclusive; also: potency is read from the fitted curve at half-maximal effect; nearly all actives have a fitted effect of over 50% in size); conditions: HSE-bla HeLa viability, CellTiter-Glo luminescence, 5 h; activity change, negative = cytotoxicity: at 62.6 µM (top of the series)
# Method in brief: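 Compounds dissolved in DMSO were added to overnight-plated HSE-bla HeLa cells and left 5 h at 37 C. Cell viability was quantified by luminescence using CellTiter-Glo.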
# [7] = qHTS assay to identify small molecule antagonists of the peroxisome proliferator-activated receptor delta (PPARd) signaling pathway - cell viability counter screen (AID 743213; active = well fitted curve in the direction sought with a large enough effect in the repeat runs; inconclusive = weak or mixed curves; inactive = no such curve, though single readings can be large; an effect the other way counts as inactive or inconclusive; also: nearly all actives have a fitted effect of over 50% in size; also: potency is read from the fitted curve at half-maximal effect); conditions: PPARd-bla HEK293H viability, CellTiter-Glo luminescence, 17 h; viability change, negative = cytotoxic: at 62 µM (top of the series) unless noted
# Method in brief: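 HEK293H PPARd UAS-bla cells, 5 h pre-incubation, compound + L165041 300 nM final, 17 h 37 C; B/G FRET substrate 2 h RT; then CellTiter-Glo 30 min RT, luminescence.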
# [8] = biological target: Peroxisome proliferator-activated receptor delta (Homo sapiens) (UniProt Q03181); assay: qHTS assay to identify small molecule antagonists of the peroxisome proliferator-activated receptor delta (PPARd) signaling pathway (AID 743215; active = well fitted inhibition curve with a large enough effect in the signal ratio in the repeat runs, not every such curve was filed as active; inconclusive = weak or mixed curves, or effect the other way; inactive = no such curve, though single readings can be large or run the other way; the % refers to the signal ratio;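 also: cells stimulated with agonist L165041 at 300 nM final during compound exposure; potency is read from the fitted curve at half-maximal effect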); conditions: HEK293H PPARd-UAS-bla, beta-lactamase FRET ratio, antagonist, 17 h; ratio activity, negative = inhibition: at 62 µM (top of the series) unless noted
# Method in brief: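 Here, a reporter line (HEK293H, beta-lactamase under a UAS) measures PPARd signaling. Compounds are tested against agonist L165041 at 300 nM final concentration over 17 h at 37 C, with fluorescence read after substrate.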
# [9] = biological target: Bile acid receptor (Homo sapiens) (UniProt Q96RI1); assay: qHTS assay to identify small molecule agonists of the farnesoid-X-receptor (FXR) signaling pathway (AID 743220; active = well fitted activation curve with a large enough effect in the signal ratio in the repeat runs, not every such curve was filed as active; inconclusive = weak or mixed curves, or effect the other way; the % refers to the signal ratio); conditions: HEK293T FXR-UAS-bla, beta-lactamase FRET ratio, 16 h; activation: at 62.6 µM (top of the series)
# Method in brief: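 FXR-UAS-bla HEK 293T cells carrying a UAS-driven beta-lactamase reporter were plated for 5 h at 37C/5% CO2, then exposed to DMSO-dissolved Tox21 10K compounds for 16 h at 37C. A LiveBLAzer B/G FRET substrate was loaded for 2 h at room temperature before fluorescence reading.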
# [10] = qHTS assay to identify small molecule antagonists of the farnesoid-X-receptor (FXR) signaling pathway - cell viability counter screen (AID 743221; active = well fitted cell-killing curve with a large enough effect in the repeat runs, not every such curve was filed as active; inconclusive = weak or mixed curves, or effect the other way; inactive = no such curve, though single readings can be large or run the other way; also: potency is read from the fitted curve at half-maximal effect; nearly all actives have a fitted effect of over 50% in size); conditions: FXR-bla HEK293T viability, CellTiter-Glo luminescence, 16 h; activity change, negative = cytotoxicity: at 62.6 µM (top of the series) unless noted
# Method in brief: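 Cytotoxicity counter screen run in the FXR-bla reporter wells: HEK 293T cells exposed to compound with 50 uM (final) chenodeoxycholic acid for 16 h, 37 C, then viability measured by CellTiter-Glo luminescence after 30 min, room temperature.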
# [11] = biological target: Vitamin D3 receptor (Homo sapiens) (UniProt P11473); assay: qHTS assay to identify small molecule agonists of the vitamin D receptor (VDR) signaling pathway (AID 743222); conditions: HEK293T VDR-UAS-bla, beta-lactamase FRET ratio, 16 h; activation: at 63.5 µM (top of the series) unless noted
# Method in brief: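 Tox21 cell reporter format: VDR-bla line, 16 h compound exposure in 5% CO2 at 37C, then fluorescence intensity after 2 h with LiveBLAzer B/G FRET substrate.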
# [12] = biological target: Vitamin D3 receptor (Homo sapiens) (UniProt P11473); assay: qHTS assay to identify small molecule antagonists of the vitamin D receptor (VDR) signaling pathway (AID 743223; active = well fitted inhibition curve with a large enough effect in the signal ratio in the repeat runs, not every such curve was filed as active; inconclusive = weak or mixed curves, or effect the other way; inactive = no such curve, though single readings can be large or run the other way; the % refers to the signal ratio; also: potency is read from the fitted curve at half-maximal effect); conditions: VDR-UAS-bla HEK293T, beta-lactamase FRET ratio, 16 h
# Method in brief: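 Antagonist mode: compound added to VDR-bla cells alongside agonist 1alpha,25-dihydroxyvitamin D3 (3 nM final), incubation 16 h at 37C. Read-out is LiveBLAzer FRET fluorescence, 2 h at room temperature.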
# [13] = biological target: Bile acid receptor (Homo sapiens) (UniProt Q96RI1); assay: qHTS assay to identify small molecule antagonists of the farnesoid-X-receptor (FXR) signaling pathway (AID 743217; active = well fitted inhibition curve with a large enough effect in the signal ratio in the repeat runs, not every such curve was filed as active; inconclusive = weak or mixed curves, or effect the other way; inactive = no such curve, though single readings can be large or run the other way; the % refers to the signal ratio); conditions: HEK293T FXR-UAS-bla, beta-lactamase ratio, CDCA-stimulated, 16 h; activity change, negative = inhibition: at 62.6 µM (top of the series) unless noted
# Method in brief: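 Test compounds are pin-transferred onto FXR-bla HEK 293T cells, then chenodeoxycholic acid is added at 50 uM final. After 16 h at 37 °C, LiveBLAzer B/G substrate is applied for 2 h at room temperature and fluorescence read.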
# [14] = activity change, negative = inhibition: at 61 µM (top of the series) unless noted
# Tags tell the direction and shape of the fitted curve or compound fluorescence and quenching.
# Chain of UniProt Q96RI1 (Q96RI1 whole entry, looked up): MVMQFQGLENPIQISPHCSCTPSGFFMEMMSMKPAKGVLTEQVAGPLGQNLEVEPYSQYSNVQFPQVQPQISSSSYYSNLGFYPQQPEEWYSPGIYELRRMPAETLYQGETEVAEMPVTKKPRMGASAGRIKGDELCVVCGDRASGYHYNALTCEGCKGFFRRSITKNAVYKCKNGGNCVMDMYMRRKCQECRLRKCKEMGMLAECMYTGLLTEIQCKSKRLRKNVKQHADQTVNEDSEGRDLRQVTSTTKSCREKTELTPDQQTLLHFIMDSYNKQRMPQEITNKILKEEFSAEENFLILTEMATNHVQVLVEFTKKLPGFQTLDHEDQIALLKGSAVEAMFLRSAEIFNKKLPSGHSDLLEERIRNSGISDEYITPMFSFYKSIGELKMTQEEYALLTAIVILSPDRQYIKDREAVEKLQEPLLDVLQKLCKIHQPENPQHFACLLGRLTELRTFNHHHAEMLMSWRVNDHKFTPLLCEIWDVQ
# Chain of UniProt P11473 (P11473 whole entry, looked up): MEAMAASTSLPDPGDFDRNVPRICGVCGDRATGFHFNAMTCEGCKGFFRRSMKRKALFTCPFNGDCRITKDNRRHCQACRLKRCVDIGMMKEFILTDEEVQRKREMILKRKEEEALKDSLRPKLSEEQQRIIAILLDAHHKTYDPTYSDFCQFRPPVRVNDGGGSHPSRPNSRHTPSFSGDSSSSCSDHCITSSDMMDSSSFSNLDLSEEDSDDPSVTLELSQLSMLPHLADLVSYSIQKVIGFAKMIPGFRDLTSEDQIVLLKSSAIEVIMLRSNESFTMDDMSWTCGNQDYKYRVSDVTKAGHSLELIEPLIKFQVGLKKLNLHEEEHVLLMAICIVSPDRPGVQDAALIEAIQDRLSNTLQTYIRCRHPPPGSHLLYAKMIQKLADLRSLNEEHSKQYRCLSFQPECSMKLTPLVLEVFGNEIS
# Chain of UniProt Q03181 (Q03181 whole entry, looked up): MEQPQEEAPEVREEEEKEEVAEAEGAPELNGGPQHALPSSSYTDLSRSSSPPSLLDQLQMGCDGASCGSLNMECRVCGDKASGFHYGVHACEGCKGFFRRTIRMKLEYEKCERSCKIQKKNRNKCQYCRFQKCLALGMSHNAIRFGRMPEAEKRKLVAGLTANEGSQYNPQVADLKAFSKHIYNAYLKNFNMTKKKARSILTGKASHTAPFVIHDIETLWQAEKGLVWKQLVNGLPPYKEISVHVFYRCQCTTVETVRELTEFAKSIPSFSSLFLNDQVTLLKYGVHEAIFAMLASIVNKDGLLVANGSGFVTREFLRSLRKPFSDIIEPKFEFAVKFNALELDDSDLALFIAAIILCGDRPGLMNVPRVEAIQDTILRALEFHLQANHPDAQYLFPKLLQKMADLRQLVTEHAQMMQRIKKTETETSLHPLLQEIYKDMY
compound,measurement,setting,value
C=CC(=O)OCCCl,Potency,[1],inactive
same,Potency,[2],inactive
same,Potency,[3],"inconclusive: 0.501 µM [cytotoxic, single point]"
same,Potency,[4],inactive
Nc1cc(S(=O)(=O)O)ccc1O,Potency,[5],inactive
same,Potency,[3],inactive
same,Potency,[4],inactive
C1CCCNCCC1,Potency,[6],"inconclusive: 61.5 µM [rising, single point]"
same,Potency,[7],"inconclusive: 19.5 µM [rising, partial curve, poor fit]"
same,Potency,[8],inconclusive: 54.8 µM [activator]
same,activation,[9],inconclusive: 3.02%
same,Potency,[10],"inconclusive: 24.5 µM [falling, partial curve, poor fit]"
same,Potency,[11],inactive
same,"activity change, negative = inhibition",[12]; [14],inconclusive: 10.9%
same,Potency,[4],"inconclusive: 0.0027 µM [rising, full curve, poor fit]"
CCOC(=O)C1CC(=O)C(=C(O)C2CC2)C(=O)C1 (stereo unspecified),Potency,[13],inactive
same,Potency,[9],inactive
same,Potency,[4],"inconclusive: 9.77 µM [rising, partial curve, poor fit]"
Cc1ccccc1C(=O)N1CC/C(=N\OS(=O)(=O)O)c2ccc(Cl)cc21,Potency,[5],inactive
same,Potency,[12]; [14],"inconclusive: 10.7 µM [activator, single point]"
same,Potency,[4],inactive
CC(=O)OCc1ccc2c(c1)OCO2,"viability change, negative = cytotoxic",[7],inconclusive: 0.369% [cytotoxic]
same,Potency,[13],inactive
same,Potency,[12]; [14],inactive
same,Potency,[4],inactive
CCCCCCCCNC,Potency,[1],inactive
same,Potency,[11],inactive
same,Potency,[3],"inconclusive: 1.95 µM [cytotoxic, single point]"
same,Potency,[4],inactive
COc1c2occc2cc2ccc(=O)oc12,Potency,[7],"inconclusive: 5.96 µM [cytotoxic, single point]"
same,"activity change, negative = inhibition",[13],inconclusive: 17.5% [at 81.1 µM]
same,Potency,[12]; [14],"inconclusive: 0.239 µM [activator, full curve, poor fit]"
same,"activity change, negative = inhibition",[12]; [14],inconclusive: 2.43%
same,"activity change, negative = inhibition",[12]; at 78.8 µM (top of the series),inactive: -8.79%
same,Potency,[3],"inconclusive: 4.36 µM [cytotoxic, single point]"
same,Potency,[4],inactive
